Assay results as given in PubChem BioAssay AID504845 (National Center for Advancing Translational Sciences (NCATS), 2011).
Out of some 390,000 compounds screened, about 150 (0.038%) were called active. The shares of active, inactive and inconclusive entries below differ from those in the screen. Calls come from the whole dose curve; as a rule, active = well fitted inhibition curve with a large enough effect; inconclusive = small, poorly fitted or top-dose-only effect; inactive = no such curve, though single readings can be large or run the other way. Potencies of inconclusive entries are doubtful fits and often do not repeat.

The compounds below were run against Regulator of G-protein signaling 4 (Homo sapiens) (UniProt P49798) (assay: Inhibitors of Regulator of G Protein Signaling (RGS) 4: qHTS). Details: Transcreener GDP fluorescence polarization, RGS4-accelerated GTP hydrolysis; series mostly up to 114 µM; activity change, negative = inhibition: at the top concentration.
Sequence of UniProt P49798 (P49798 whole entry, looked up): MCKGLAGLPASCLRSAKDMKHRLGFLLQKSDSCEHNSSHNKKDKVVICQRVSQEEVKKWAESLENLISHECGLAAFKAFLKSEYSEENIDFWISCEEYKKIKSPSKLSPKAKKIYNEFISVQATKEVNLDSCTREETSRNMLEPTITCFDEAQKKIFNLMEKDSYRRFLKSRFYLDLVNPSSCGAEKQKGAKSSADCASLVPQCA
In short: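 MLSMR compounds (23 nl, pin-transferred) preincubated 10 min at room temperature with a 500nM (2x) first reagent, then RGS4 at 900nM (2x) plus Transcreener GDP mix added; fluorescence polarization (620/688 nm) read before and after 90 min at 30 °C.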
% is set by controls: 0 for no effect and ±100 for the full control effect; potency is the fitted concentration of half-maximal effect; tags give direction and shape of the fitted curve.
Note: nearly all actives have a fitted effect of over 75% in size.

Compound | activity change, negative = inhibition | Potency
O=C(NCc1ccc(Cl)cc1)C1C2C=CC3(CN(Cc4cccnc4)C(=O)C13)O2 (stereo not given) | inactive: 24.5% | 
COc1ccc(-c2cc3c(=O)n(CC(=O)NCc4cccnc4)ncn3n2)cc1 |  | inconclusive: 50.1 µM [inhibitor, partial curve, poor fit]
O=C(O)c1ccc2c(c1)[C@@H]1C=CC[C@@H]1[C@H](c1ccccn1)N2 |  | inconclusive: 89.1 µM [inhibitor, partial curve, poor fit]
O=C(NNC(=O)c1cccs1)c1ccc([N+](=O)[O-])cc1 |  | inconclusive: 89.1 µM [inhibitor, single point]
CCC(C)NC(=O)c1c(F)c(F)c(F)c(F)c1F (stereo not given) | inactive: 11.8% | 
S=c1cnc2ccccc2[nH]1 |  | inconclusive: 89.1 µM [inhibitor, partial curve, poor fit]
C=C1CCN(C(Cc2ccccc2)C(=O)NCc2ccc(Cl)c(Cl)c2)S(=O)(=O)c2ccccc21 (stereo not given) | inactive: 20.5% | 
CN1C(=O)c2oc3ccccc3c(=O)c2C1c1ccncc1 (stereo not given) |  | inconclusive: 39.8 µM [inhibitor, partial curve, poor fit]
CCOC(=O)C1=CNS(=O)(=O)NC1c1ccc(C#N)cc1 (stereo not given) | inactive: 7.14% | 
COc1ccc(-n2ccnc(SCC(=O)NCc3ccccc3Cl)c2=O)cc1 |  | inconclusive: 100 µM [inhibitor, partial curve, poor fit]
FC(F)(F)c1nc(=S)c2ccccc2[nH]1 |  | inconclusive: 79.4 µM [inhibitor, partial curve, poor fit]
Cc1cc(C)nc(N2CCC(C(=O)NCc3ccco3)CC2)n1 | inactive: -7.66% | 
CCOC(=O)c1sc(=S)n(-c2ccc(F)c(F)c2)c1N |  | inconclusive: 79.4 µM [inhibitor, partial curve, poor fit]
Cc1cccc(NC(=O)c2cc3c([nH]c4ccccc43)c(C)n2)c1C | inactive: -18.6% | 
Brc1cccc(OCCSc2ncccn2)c1 |  | inconclusive: 39.8 µM [inhibitor, partial curve, poor fit]
O=C(CN1CCCc2ccccc21)NC(=O)NC1CCCCC1 |  | inconclusive: 39.8 µM [inhibitor, partial curve, poor fit]
Cc1ccc(NC(=O)COc2cccc(-n3cnnn3)c2)cc1[N+](=O)[O-] |  | inconclusive: 56.2 µM [inhibitor, partial curve, poor fit]
c1ccc(COc2cncc(-c3cccnc3)c2)cc1 |  | inconclusive: 44.7 µM [inhibitor, partial curve, poor fit]
Cc1ccc(C(=O)NC(=S)NNC(=O)c2ccccc2[N+](=O)[O-])cc1 |  | inconclusive: 70.8 µM [inhibitor, partial curve, poor fit]
Cc1ccc(-c2cc(C(F)(F)F)n3nc(C(=O)Nc4ccc(Cl)c(C(F)(F)F)c4)cc3n2)cc1 | inactive: 18.1% | 
CN(CC1CCCO1)S(=O)(=O)c1ccc(C(=O)Nc2ccc([N+](=O)[O-])cc2)cc1 (stereo not given) |  | inconclusive: 89.1 µM [inhibitor, single point]
COc1ccc(NC(=O)C(c2ccc(Cl)cc2)C(C)C)cn1 (stereo not given) | inactive: -15% | 

Compound | activity change, negative = inhibition | Potency
Cc1c(Br)c([N+](=O)[O-])nn1C(C)C(=O)N1CCCc2ccccc21 (stereo not given) |  | inconclusive: 50.1 µM [inhibitor, partial curve, poor fit]
Cc1ccc2nc(SCC(=O)c3c(N)n(C)c(=O)n(C)c3=O)[nH]c2c1 |  | inconclusive: 39.8 µM [inhibitor, partial curve, poor fit]
Nc1cccc(-c2cn3cccnc3n2)c1 |  | inconclusive: 50.1 µM [inhibitor, partial curve, poor fit]
O=C(Nc1cc(C(F)(F)F)ccc1N1CCOCC1)C1CC1 |  | inconclusive: 100 µM [inhibitor, partial curve, poor fit]
COc1ccc(NC(=O)/C(C#N)=C/c2ccc(OCc3cc(=O)n4nc(C)sc4n3)cc2)cc1 | inactive: -38.8% | 
O=Cc1cn(CC(O)Cn2cc(C=O)c3ccccc32)c2ccccc12 |  | inconclusive: 79.4 µM [inhibitor, single point]
Cc1cccc2nc(COc3ccc4ccccc4c3Br)cn12 |  | inconclusive: 35.5 µM [inhibitor, partial curve, poor fit]
O=c1cc(CN2CCN(Cc3ccccc3)CC2)c2cc3c(cc2o1)CCC3 | inactive: -32.4% | 
CC(=O)Oc1ccccc1C(=O)C=Cc1cccc([N+](=O)[O-])c1 |  | inconclusive: 28.2 µM [inhibitor, full curve, poor fit]
CC1=NN(c2ccc(Cl)c(C(=O)O)c2)C(=O)/C1=C/c1ccc(-c2ccccc2[N+](=O)[O-])o1 |  | inconclusive: 50.1 µM [inhibitor, partial curve, poor fit]
O=C1CC(c2ccccc2)Cc2[nH]c(=O)c(C(=O)Nc3cccc(F)c3)cc21 (stereo not given) | inactive: -17.2% | 
CCOc1ccc(C(CC(=O)O)N2Cc3ccccc3C2=O)cc1OC (stereo not given) | inactive: 7.23% | 
Cc1noc(/C=C/c2ccco2)c1S(=O)(=O)N1CCC(C(=O)N2CCc3ccccc32)CC1 |  | inconclusive: 50.1 µM [inhibitor, partial curve, poor fit]
Cc1ccc(N2C(=O)C(Cl)=C(N3CCN(C)CC3)C2=O)c(C)c1 |  | inconclusive: 79.4 µM [inhibitor, single point]
O=C(NCC(c1ccco1)N1CCN(c2ccccc2F)CC1)C(=O)NC1CC1 (stereo not given) | inactive: -2.13% | 
CCn1c(CSc2nnc(-c3ccncc3)n2CCOC)nc2cc(C(=O)O)ccc21 |  | inconclusive: 79.4 µM [inhibitor, partial curve, poor fit]
Cc1ccc(/C=C2\CC(C)CC3=C2NC(=S)NC3c2ccc(C)cc2)cc1 (stereo not given) |  | inconclusive: 11.2 µM [inhibitor, full curve, poor fit]
Cc1ccc2[nH]c(O)c(N=Nc3ccccc3C)c2c1 |  | inconclusive: 70.8 µM [inhibitor, partial curve, poor fit]
CN1CCN2c3ccccc3CC3(C(=O)OC(C)(C)OC3=O)C2C1 (stereo not given) | inactive: 0.7% | 
COc1ccc(-c2nn(-c3ccccc3)cc2/C=N/O)cc1OC |  | inconclusive: 89.1 µM [inhibitor, single point]
Cn1nc(-c2ccc(S(N)(=O)=O)s2)cc1C(F)(F)F |  | inconclusive: 50.1 µM [inhibitor, partial curve, poor fit]
O=C(COc1ccc2c(c1)OCO2)Nc1nnc(Cc2ccccc2)s1 |  | inconclusive: 50.1 µM [inhibitor, partial curve, poor fit]

Compound | activity change, negative = inhibition | Potency
C=C(C(=O)c1ccccc1)C(C)CC(=O)c1ccccc1 (stereo not given) |  | inconclusive: 70.8 µM [inhibitor, partial curve, poor fit]
C[C@H](CO)N1C[C@H](C)[C@@H](CN(C)S(=O)(=O)c2ccccc2)Oc2ccc(NC(=O)Nc3ccc(C(F)(F)F)cc3)cc2C1=O | inactive: -5.25% | 
Cc1[nH]n(-c2ccccc2)c(=O)c1C(c1ccc(C(=O)O)cc1)c1c(C)[nH]n(-c2ccccc2)c1=O |  | inconclusive: 17.8 µM [inhibitor, full curve, poor fit]
C/C=C\C=C\C(=O)N1CC2(CC(c3cccc(NC(=O)CC(c4ccccc4)c4ccccc4)c3)=NO2)C[C@H]1C(N)=O (stereo not given in full) |  | inconclusive: 31.6 µM [inhibitor, full curve, poor fit]
CCOc1cc(/C=N/N=C2/NC(=O)C(CC(=O)O)S2)ccc1OCc1ccc(Cl)cc1Cl (stereo not given) |  | inconclusive: 89.1 µM [inhibitor, partial curve, poor fit]
Nc1ncnc2c(C3OC(CO)C(O)C3O)c[nH]c12 (stereo not given) |  | inconclusive: 89.1 µM [inhibitor, single point]
COc1ccc(N2C(=O)CC(Sc3nnc(-c4ccccc4)o3)C2=O)cc1 (stereo not given) | inactive: -44% | 
CCOc1ccc(N2C(=O)C3Sc4[nH]c(=O)sc4C(/C=C/c4ccccc4)C3C2=O)cc1 (stereo not given) |  | inconclusive: 89.1 µM [inhibitor, partial curve, poor fit]
O=C1C(=O)C(c2cc(O)c(O)c(O)c2)Oc2cc(O)cc(O)c21 (stereo not given) |  | inconclusive: 17.8 µM [inhibitor, full curve, poor fit]
CC(C)NCC(O)Cn1c2c(c3ccccc31)CCc1c-2cnn1-c1ccccc1 (stereo not given) |  | inconclusive: 89.1 µM [inhibitor, single point]
N#Cc1nc(-c2ccc(OCc3ccc(Cl)cc3)cc2)oc1N1CCCC1 | inactive: -14.4% | 
Clc1ccccc1CSC1=NCCCN1 | inactive: -3.89% | 
COc1ccc(C(=O)N/N=C/c2sc3ccccc3c2O)cc1 | inactive: -40.7% | 
O=C(c1ccccc1)N1N=C(c2ccco2)CC1c1cccs1 (stereo not given) |  | inconclusive: 35.5 µM [inhibitor, partial curve, poor fit]
Cc1cc2c(cc1C)NC(=O)CC(c1ccccc1)=N2 | inactive: -7.66% | 
CSc1ccc(C2NC(=O)c3c(sc4c3CCN(C)C4)N2)cc1 (stereo not given) |  | inconclusive: 50.1 µM [inhibitor, partial curve, poor fit]
CCn1c(CNC(=O)c2ccc(OC)cc2)nnc1SCC(=O)c1ccccc1 |  | inconclusive: 44.7 µM [inhibitor, partial curve, poor fit]
COc1ccc(NC(=O)C(=O)NCCC2=CCCCC2)c(OC)c1 |  | inconclusive: 89.1 µM [inhibitor, single point]
CCC(Cc1ccccc1)NC(=O)Cn1cccc1C(=O)c1ccccc1 (stereo not given) |  | inconclusive: 56.2 µM [inhibitor, partial curve, poor fit]
CCCc1[nH]n(-c2ccc([N+](=O)[O-])cc2)c(=O)c1C=NCCc1c[nH]c2ccccc12 | inactive: -11.6% | 
Cc1nc(NS(=O)(=O)c2ccccc2)sc1NC(=O)Nc1ccc(Cl)cc1 |  | inconclusive: 89.1 µM [inhibitor, single point]
